# From the supplement of paper PMC3334620
# The full ranking holds about 33,000 sequences; the median of “E-score (-0.5 to 0.5)” is about -0.041, and the highest 2% start at about 0.37. Some of the results follow.
# Target: T1, Ecm22 (UniProt Q05958)
# T1 sequence: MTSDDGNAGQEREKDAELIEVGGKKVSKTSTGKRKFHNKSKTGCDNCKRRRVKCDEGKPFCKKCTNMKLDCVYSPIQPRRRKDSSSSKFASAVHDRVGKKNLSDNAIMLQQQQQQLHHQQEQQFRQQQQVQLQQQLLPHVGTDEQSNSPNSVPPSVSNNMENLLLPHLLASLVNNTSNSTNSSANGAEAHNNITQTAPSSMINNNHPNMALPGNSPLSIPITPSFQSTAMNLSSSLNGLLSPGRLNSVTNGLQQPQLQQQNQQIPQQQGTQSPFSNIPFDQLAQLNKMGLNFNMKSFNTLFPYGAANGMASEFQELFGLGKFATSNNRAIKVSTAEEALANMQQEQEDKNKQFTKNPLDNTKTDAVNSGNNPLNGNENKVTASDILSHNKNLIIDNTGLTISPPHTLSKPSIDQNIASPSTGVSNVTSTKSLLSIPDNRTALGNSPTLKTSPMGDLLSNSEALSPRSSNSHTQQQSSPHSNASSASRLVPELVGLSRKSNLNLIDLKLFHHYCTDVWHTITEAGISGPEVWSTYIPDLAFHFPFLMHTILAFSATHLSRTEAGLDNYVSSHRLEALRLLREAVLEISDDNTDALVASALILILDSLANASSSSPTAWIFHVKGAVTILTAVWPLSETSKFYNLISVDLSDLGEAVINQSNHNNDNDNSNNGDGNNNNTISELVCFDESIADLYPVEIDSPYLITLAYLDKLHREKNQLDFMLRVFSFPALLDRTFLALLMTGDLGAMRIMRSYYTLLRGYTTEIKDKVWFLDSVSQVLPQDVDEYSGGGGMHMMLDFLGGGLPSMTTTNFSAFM
# Assay: PBM E-score (8-mer binding enrichment) (E-score (-0.5 to 0.5)); higher = stronger / more preferred TF binding; most listed sequences are background and not binding sites
# Details: protein concentration: 200 nM; construct: GST-full length
# Procedure: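 Universal 'all 10-mer' protein binding microarrays (Agilent AMADID 015681) probed with GST-tagged S. cerevisiae TFs (full-length or DBD) made by in vitro transcription/translation (PURExpress), about 100-200 nM. Bound TF was detected with fluorescent anti-GST. Each ungapped 8-mer (which stands for itself and its reverse complement) is scored by the PBM enrichment score (E-score), a modified Wilcoxon-Mann-Whitney statistic from -0.5 to +0.5, computed with the Universal PBM Analysis Suite. Scale: above 0.35 generally sequence-specific binding.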
row,Sequence,PBM E-score
1,CGACTGAA,0.163
2,ACCCCCCA,-0.296
3,CGCTCCGA,0.203
4,ACAATGGA,-0.0436
5,ACGCTTCC,-0.0671
6,GAAAGATA,-0.0171
7,GGTGGCCA,-0.312
8,AATCCGAC,0.104
9,AGTGGGCG,-0.167
10,CGTACTAA,0.341
11,GGTACCTA,-0.1
12,CGATTAGA,0.162
13,CCCACAGA,-0.187
14,GTGGTGGA,0.0768
15,CGGATAGA,0.219
16,ATCAGATA,0.0184
17,AGACTAGG,-0.128
18,AACCTCGT,0.323
19,ATCTTAGG,-0.238
20,AGGGAAAT,-0.142
21,CGGCAACC,-0.082
22,ACTACTTC,0.0171
23,CAGTCTAC,-0.164
24,GATATATA,0.179
25,CGCTATGC,0.00717

row,Sequence,PBM E-score
1,TGCTCTAA,-0.129
2,AGGCGCAG,-0.21
3,GGCTTCTA,-0.173
4,ACACCACC,-0.222
5,GCCATTCC,-0.238
6,ATTCTGTG,0.00651
7,GACCGCTA,0.0611
8,TAACATAA,0.0953
9,GGTATAAA,0.2
10,CCTTCATC,-0.0839
11,GAATGCTA,-0.0657
12,ATACGGTC,0.383
13,ATTGGTTC,-0.0563
14,ATTGCGCA,0.0363
15,GGACTCGA,-0.0322
16,TACCACGA,0.0887
17,CGAAGCTC,-0.0222
18,GATCGAGA,0.18
19,CAAAACCG,0.0779
20,CGGAATGA,-0.0548
21,AGACAGAG,-0.0916
22,ATGCAGCC,-0.129
23,AAGCGAGG,0.338
24,CGACACAC,0.257
25,CATTCCAG,-0.289

row,Sequence,PBM E-score
1,GGAACCCA,-0.147
2,AGTGTGGC,-0.0286
3,ATGTGGCC,-0.268
4,CATTGTTA,-0.0797
5,CTCTCTGA,-0.21
6,CTAACCGA,0.372
7,CCTTCGCG,0.0868
8,CATTATGG,-0.221
9,CGCATGGA,-0.0687
10,ATCTTGTC,-0.0519
11,GACTGGCA,-0.254
12,AGCAATCG,0.0827
13,CAATTGGG,-0.184
14,AGGATTGA,-0.189
15,CTGGGCGC,-0.28
16,ACCCAATC,-0.136
17,AGAACCAA,-0.0644
18,CCCGCTCA,0.0492
19,ATGGCCGG,-0.208
20,AGAAGGAG,-0.261
21,GAGTGATA,0.174
22,AACGCCAA,0.0935
23,AAACTCAG,-0.216
24,CGCCCGAA,0.0388
25,CCACCATC,-0.281

row,Sequence,PBM E-score
1,ATTCCATA,0.0992
2,TGGGCTAA,-0.163
3,AGGAGCCC,-0.197
4,AAGTCGAC,-0.0411
5,AACGGTCG,0.292
6,CCTCGGCG,0.156
7,AAAACACA,-0.0145
8,AAAAAAAG,-0.171
9,CCTCAGTC,-0.146
10,CTTCAACA,-0.202
11,GATGAAAA,0.0642
12,AGGGCGCG,-0.0881
13,AGCAATTC,-0.0108
14,CTTCTTAA,0.00805
15,AAATGCTC,-0.0255
16,ACGGGGTG,0.136
17,AGATTGGG,-0.154
18,CCTTCACC,-0.31
19,TGAATTAA,0.099
20,CAACTATA,0.0314
21,ACCGTCCA,-0.105
22,AGGAATTC,-0.133
23,AAAACGCT,-0.043
24,CAACGGTG,0.046
25,ATGCAGCA,-0.0375

row,Sequence,PBM E-score
1,CACCGCGA,0.0513
2,ACGTCAAT,0.0195
3,AAAATTTC,-0.0329
4,GATCGCCC,0.0885
5,ACTAGGTC,0.0604
6,ATTACCCA,-0.16
7,AATGTTTA,-0.0608
8,CGATTTAC,0.166
9,TCTTATCA,0.0547
10,ACGAGCCG,0.389
11,CGACGGCC,0.19
12,ACAAGCTA,-0.0235
13,ATGCACGC,-0.0896
14,CGTACAAC,0.434
15,ACATTTCG,0.105
16,GTCCTGCA,-0.334
17,CCCCCCGA,-0.244
18,ATGGTCCG,0.178
19,CAAGAAAC,-0.178
20,ACATCAGT,-0.159
21,CGGTGTTA,0.0882
22,ATGCGGGC,-0.0483
23,ATGAGTAG,-0.0787
24,CGAGACAG,0.199
25,ACGTTGTC,-0.015

row,Sequence,PBM E-score
1,GAAAGTTA,0.0522
2,AATAAACT,-0.0489
3,GACCTATC,-0.0499
4,GCCCTAGA,-0.103
5,CATGAGCG,0.0595
6,AAGCACGC,-0.0404
7,TCCTACAA,0.0334
8,AGTCGCAG,-0.0565
9,ACCAGGCT,-0.198
10,GGTTGGAA,0.0236
11,TGCCCACA,-0.309
12,GGCCACTA,-0.248
13,CAACCCAA,-0.165
14,GCCCCGTA,0.26
15,ACTCGGAA,0.184
16,TTCAGCAA,-0.0214
17,ACAACCGC,0.111
18,TATCGGCA,-0.053
19,CCCCAATC,-0.247
20,ACCGCTCA,0.0795
21,GGGCCCAC,-0.0197
22,ATTTCGAC,0.0102
23,CGTCGCTC,0.33
24,AATTTGAT,-0.0969
25,CGGGAGTA,0.077

row,Sequence,PBM E-score
1,GCAACAGC,-0.242
2,GTCATGAC,0.0454
3,ACCAAATG,-0.136
4,CGAAACAA,0.25
5,ACCCTAGT,-0.292
6,AAGAGCGA,0.286
7,GAAACTCA,-0.0057
8,GCAATCCA,-0.177
9,CGGATAAG,0.0485
10,AATCTCGA,0.0888
11,CGTGGCCC,-0.0808
12,CGACTGCG,0.081
13,GGGGTGCA,-0.0228
14,ACCATATA,0.238
15,CAAACGGA,0.202
16,ACACTGCG,0.0708
17,CTACCTCC,0.0237
18,AAGGAGGG,-0.132
19,AAAGTGCA,-0.133
20,ACCCATAC,0.0198
21,ACTGCCCT,-0.185
22,AAAAAGGC,-0.14
